Reference: the supplement of paper PMC10126150
Sequences with one replicate were seen in a single cluster, so their values are uncertain.

Each sequence was assayed on ATP (assay: switch fluorescence ratio, 500 uM ATP over buffer (Cy3 cluster intensity, sum of 5 cycles each) (fold (ratio)); higher = stronger signal-on switching upon ATP binding; sequences stand for … in TCGTCGGCAGCGTCAGATGTGTATAAGAGACAGTTTTTTTTTTTTTTTTTTTTTTTTT…TC). Conditions: aptamer strand: ATP DNA aptamer (quencher-CACCTGGGGGAGTATTGCGGAGGAAGG + anchor), 100 nM annealed; ATP concentration: 500 uM; one replicate.
Outline: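 Clusters carrying Cy3-labelled switching strands on a modified Illumina MiSeq flow-cell were annealed to 100 nM quencher-labelled ATP aptamer and imaged in selection buffer. They were imaged again after 15 min with 500 uM ATP at 22 °C, over five buffer/ATP cycles with NaOH stripping and re-annealing in between. For each cluster, the fluorescence ratio is the summed Cy3 intensity of the target cycles divided by that of the buffer cycles, averaged per switch-domain sequence. Clusters outside 100-1000 RFU were left out.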
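Also: ATP exposure 15 min at 22 °C before imaging.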

Row | Sequence | switch fluorescence ratio
1 | AATAATTG | 0.982
2 | CGGGCTCAGT | 1.02
3 | ATGGTCGTCC | 0.999
4 | ACAGTTAACA | 1.01
5 | TGTTCGGGCA | 0.98
6 | AGGCTATGGG | 0.996
7 | AGAGAACTTT | 1.02
8 | TTGAAGTTT | 0.993
9 | AAGTGACAGA | 0.956
10 | TCTAGTTTGA | 0.972
11 | GGGCAAAACT | 1.14
12 | GGTTCCAATG | 1.01
13 | AATACTGAAC | 1.2
14 | TAAGCCCCGT | 1.05
15 | AAAAGGGATC | 0.991
16 | ATAGACCGGA | 1.08
17 | TACTGTAT | 1.24
18 | ATTCTTAAGT | 0.986
19 | CTCGGGGTG | 0.994
20 | CAAGGTTGGC | 1.09
21 | AAGACCGTAT | 1.18
22 | CAACTGGCTC | 0.955
23 | CTTATGTAAG | 1
24 | GGCGTCCCCC | 1.08
25 | TAACGCGAGC | 1.09
26 | ATCGCAGTAA | 1.54

Row | Sequence | switch fluorescence ratio
27 | ATACAGAGTG | 1.03
28 | GTCCCGGCGC | 1.08
29 | GCTTCTTACA | 0.982
30 | ACTGAAGAGC | 0.884
31 | GCAGAACGAG | 1.14
32 | AGCTGATGCA | 1.01
33 | CTATCTGTT | 0.985
34 | GCACCTCGCC | 1.09
35 | TTGACCCGCC | 0.958
36 | CTGTTGGCGA | 1.07
37 | CTTATTGAGG | 0.971
38 | GAGGCACTTA | 1.02
39 | CCGCAAAAAG | 2.23
40 | TGGGCAACGG | 1.04
41 | CAGGCATCTA | 1
42 | CGGGGACAGG | 0.965
43 | GATTATGACT | 1.01
44 | AGCTTGGATG | 0.973
45 | TATCGGGCA | 0.993
46 | CGTGGTATGA | 1.02
47 | CCACCATCCG | 1.24
48 | GGGCAGTTAG | 1.04
49 | GTAAACCCCC | 1.3
50 | GTAATTAGA | 0.992
51 | TTAGATGTAC | 0.971
52 | CCATCGGGCG | 0.988

Row | Sequence | switch fluorescence ratio
53 | TTGTGGACAC | 0.959
54 | CCTGGGGCCG | 0.964
55 | CAGAGGTTTT | 1.03
56 | TCGGTATCAA | 0.975
57 | TACGTTAGAC | 1.28
58 | TTACCTTCCC | 3.05
59 | GAATGTTCGC | 1.05
60 | GGATACATCA | 0.999
61 | TATCGCGTGC | 1.03
62 | GAGGCGCACG | 1
63 | AGAGGCGGCG | 0.969
64 | CCCCCCACA | 2.28
65 | AAGATAGCCT | 0.999
66 | GGTTGAAGCT | 0.974
67 | ATTATGGAAT | 1.05
68 | TAAATAGCGA | 0.994
69 | CAGTGTTCGG | 0.981
70 | ATGCCGCTGT | 1.05
71 | GAGGACAGTC | 1.07
72 | AAGACTTTAG | 1
73 | CTATTCTAAT | 0.975
74 | GATAGGCCGC | 1.03
75 | TATGGCCCTA | 0.986
76 | GATCTCATCG | 1.03
77 | AGCCTGTCG | 0.981
78 | CAATTATTGG | 0.989

Row | Sequence | switch fluorescence ratio
79 | TTGGTCAGGC | 1.01
80 | GGTGCTGGTC | 0.9
81 | GACGGTATGT | 1.04
82 | AAACCCGATC | 1.02
83 | CTGCGTTGGA | 1.03
84 | CACTTTACGT | 1.32
85 | TTAGTTGCAT | 1.01
86 | AACCGGCGTT | 0.981
87 | CTGCTAGGAT | 1.03
88 | TCGAGACTTT | 0.964
89 | TTTACATCGA | 1.05
90 | GCGAGCCGCT | 1.02
91 | GTGGCCGGGA | 0.985
92 | GGGCGGTACG | 1.05
93 | TAGTTTAGTG | 1
94 | CCTGGCGAAA | 1.15
95 | CAGTCTGGGC | 1
96 | CGGCTGCTGT | 0.982
97 | TTAAGGTGCG | 0.978
98 | AAACATTAAC | 1.1
99 | ATCGCTG | 0.943
100 | AGGTTTG | 0.975
101 | TCCTGTGGGG | 0.986
102 | ATATCGGGCG | 0.989
103 | CCCTGATGGC | 1.04
104 | ATAAACTAT | 1

Row | Sequence | switch fluorescence ratio
105 | CGGTGTTCAC | 0.976
106 | AGCTACAGTG | 1.04
107 | ACAAACAGAC | 1.21
108 | TAACAGTCTT | 0.994
109 | TAGATTATTA | 1.06
110 | CTCGCTCACG | 1.07
111 | CAGACTAGAA | 0.996
112 | TTGTTGGT | 0.968
113 | CAACATACGG | 1.46
114 | ACGTTTCGGC | 1
115 | TGGCAGTGCG | 1.03
116 | CGAATGTTG | 0.948
117 | TTTGACATAA | 0.994
118 | GGAGGCTCTT | 1.03
119 | AGTATAGGC | 0.956
120 | CTTACCCGTG | 0.989
121 | AAGAATCCTG | 0.991
122 | GAGATTAAAT | 1
123 | ACAGTTAGGA | 0.977
124 | TAACGATTGG | 1.03
125 | GTGATAGGT | 1.01
126 | AATTTATTAG | 0.99
127 | ATTATCGGCA | 1.06
128 | ATAGAGATGC | 1.09
129 | ATACATTAGC | 1.07
130 | CGGAGGTAGT | 0.992

Row | Sequence | switch fluorescence ratio
131 | CTGAGAGATT | 0.991
132 | GCGTGCACGG | 1
133 | GACGTCTCGC | 1.06
134 | AGACATAAGA | 1.05
135 | TCACTTGGCC | 1.01
136 | TATCGGGTG | 1.03
137 | TGCCGGCGGA | 0.951
138 | TTGATTTGGG | 0.972
139 | AGGACAGTAC | 1.61
140 | GGGTTCATAC | 0.968
141 | CGGTGGGAAA | 1.03
142 | TGGGTGGGTT | 0.963
143 | CTATGAGCGG | 1.02
144 | CCGTCTTCGG | 0.985
145 | ACACTGATGT | 1.05
146 | CGGCTATTGG | 0.948
147 | GGCGACAAGC | 1.01
148 | GCTAGCAATT | 0.98
149 | AGCGTGGCAG | 0.966
150 | CTTTTATTCG | 1.09
151 | AATAAGAGTC | 1.06
152 | TGATCTGTGG | 1.01
153 | CTCAGTTTAC | 1.45
154 | TTCCAATAGT | 1.04
155 | GGACGGGGCA | 1.03
156 | AGAATGCGCG | 1.06

Row | Sequence | switch fluorescence ratio
157 | ATGAGATGTC | 1.19
158 | TCTGAAGGTC | 1.1
159 | ACGGACCCGT | 1.05
160 | GGCTTAGTA | 1.02
161 | AATACATTGG | 1.02
162 | TTTACGTCAT | 1.19
163 | GAAGGAGCTA | 1
164 | TTCTATACTT | 1.05
165 | CGAGGGCCTA | 1
166 | GAACATCGCC | 0.996
167 | ATAGGAAAGT | 0.983
168 | AACGCTGTCA | 1.03
169 | ACTTAGACTG | 0.935
170 | TTGAGTACTC | 1.04
171 | CATGTATCGG | 1.02
172 | TCGGATCTTA | 1.01
173 | TATCATCATC | 0.948
174 | ACATGTGAGC | 1
175 | TGCGGGAGAT | 1.01
176 | GTTGGACTGT | 1.02
177 | CGGCGACGCT | 1.04
178 | CATGTTACTG | 0.907
179 | CTGAAATACG | 2.52
180 | TTATACGCAG | 1.07
181 | TTATGCGTAT | 1
182 | TGAGAGAATA | 0.976

Row | Sequence | switch fluorescence ratio
183 | TGTGTACGAC | 1.02
184 | CTGAACTCTG | 1.25
185 | ATACGGAAA | 1
186 | GATAAAATCT | 1.05
187 | CAGGGAAAA | 1.05
188 | TAACCGGAGC | 1.53
189 | GTTGCGTAAG | 0.972
190 | CCAACTTATG | 1
191 | AAACATTTAC | 1.16
192 | CTGGCGCCTT | 0.96
193 | TAAGTAATCC | 1.01
194 | AAGTATCTGC | 1.06
195 | CATAGACAGG | 1.05
196 | GCTGATTAGG | 1.03
197 | TGTCGGCATC | 1.02
198 | CTAACCACTG | 1.01
199 | CTACGTATAT | 1.89
200 | CTAGCGGTG | 1
201 | AGGGCGACTT | 1.02
